Measured values from publication PMC4336329 (PLoS ONE, 2015).
Among all 310,000 compounds or so, about 2,200 (0.71%) showed an effect of 50% or more. Effects have a minus sign here. Some of the results follow.

The molecules below were run against human ether-à-go-go-related gene (hERG) potassium channel (human, UniProt Q12809) (assay: primary screen, population patch clamp on CHO cells stably expressing hERG).
human ether-à-go-go-related gene (hERG) potassium channel, sequence (Q12809 whole entry, looked up): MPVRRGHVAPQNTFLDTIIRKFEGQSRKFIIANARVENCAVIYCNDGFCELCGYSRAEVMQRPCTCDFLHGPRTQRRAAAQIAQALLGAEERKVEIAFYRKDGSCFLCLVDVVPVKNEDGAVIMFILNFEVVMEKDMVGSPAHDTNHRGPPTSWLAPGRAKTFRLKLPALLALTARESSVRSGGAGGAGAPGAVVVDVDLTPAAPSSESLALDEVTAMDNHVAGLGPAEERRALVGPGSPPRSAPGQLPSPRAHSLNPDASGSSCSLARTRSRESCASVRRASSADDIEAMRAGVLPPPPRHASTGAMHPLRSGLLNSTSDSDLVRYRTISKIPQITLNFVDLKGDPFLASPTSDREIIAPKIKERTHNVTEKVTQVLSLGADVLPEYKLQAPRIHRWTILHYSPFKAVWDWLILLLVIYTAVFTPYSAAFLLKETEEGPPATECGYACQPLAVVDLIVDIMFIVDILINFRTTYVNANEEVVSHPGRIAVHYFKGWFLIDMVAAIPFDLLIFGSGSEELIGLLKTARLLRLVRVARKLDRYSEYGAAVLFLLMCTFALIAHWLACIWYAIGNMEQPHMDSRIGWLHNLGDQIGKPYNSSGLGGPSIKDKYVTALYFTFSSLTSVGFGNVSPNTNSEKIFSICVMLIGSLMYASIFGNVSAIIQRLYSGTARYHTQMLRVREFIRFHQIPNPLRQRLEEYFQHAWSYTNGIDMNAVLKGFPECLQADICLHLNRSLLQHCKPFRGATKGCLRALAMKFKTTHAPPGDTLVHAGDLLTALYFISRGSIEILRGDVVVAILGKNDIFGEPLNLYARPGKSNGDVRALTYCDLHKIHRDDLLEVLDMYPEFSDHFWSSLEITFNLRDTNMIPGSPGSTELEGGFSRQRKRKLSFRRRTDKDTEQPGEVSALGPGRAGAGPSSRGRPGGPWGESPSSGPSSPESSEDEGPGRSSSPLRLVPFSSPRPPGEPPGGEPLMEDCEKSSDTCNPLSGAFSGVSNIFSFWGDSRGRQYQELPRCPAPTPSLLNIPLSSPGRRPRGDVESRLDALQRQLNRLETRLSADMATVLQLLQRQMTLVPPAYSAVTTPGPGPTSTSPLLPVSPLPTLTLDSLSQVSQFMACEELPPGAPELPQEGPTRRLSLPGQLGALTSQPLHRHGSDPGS
In the case of Cc1ccc(C)c(C2C(C#N)=C(N)Oc3cc(C)oc(=O)c32)c1 (centres unmarked), the “hERG current change (%, negative = inhibition) at 1uM” value was 15.2%. For CCC(=O)N/N=C/c1ccc(OS(=O)(=O)c2ccccc2)cc1, the “hERG current change (%, negative = inhibition) at 1uM” value was 10%. With Cc1ccc(C(=O)NCc2ccccn2)cc1Cl the “hERG current change (%, negative = inhibition) at 1uM” value was 9.31%. With Cc1cc(S(=O)(=O)NCc2ccccc2)ccc1OCC(=O)NCc1ccccn1 the “hERG current change (%, negative = inhibition) at 1uM” value was -1.19%. For Cc1ccc(/C=N/Nc2cccc3cccnc23)c(O)c1, the “hERG current change (%, negative = inhibition) at 1uM” value was 15.5%. For COCCNc1nnnc2c1sc1nc(N3CCOCC3)c3c(c12)CC(C)(C)OC3, the “hERG current change (%, negative = inhibition) at 1uM” value was 12%. Cc1cc(OCC(=O)NCC(O)c2ccccc2)c2c3c(c(=O)oc2c1)CCCC3 (centres unmarked) was tested, and the “hERG current change (%, negative = inhibition) at 1uM” value was 5.73%. COc1ccc(CNC(=O)Nc2ccc(C)cc2C)cc1 was tested, and the “hERG current change (%, negative = inhibition) at 1uM” value was 5.96%. For COC(=O)C1Cc2c([nH]c3ccccc23)CN1 (centres unmarked), the “hERG current change (%, negative = inhibition) at 1uM” value was 5.08%. With O=C1N[C@@H](Cc2ccccc2)C(=O)N2CCC[C@@H]12 the “hERG current change (%, negative = inhibition) at 1uM” value was 13.4%. For Cc1ccccc1C(=O)N1CCC(C(=O)Nc2ccc(C)c(S(=O)(=O)N3CCCCC3)c2)CC1, the “hERG current change (%, negative = inhibition) at 1uM” value was 2.28%. CC(C)c1nnc(N2C(=O)c3oc4ccccc4c(=O)c3C2c2ccco2)s1 (centres unmarked) was tested, and the “hERG current change (%, negative = inhibition) at 1uM” value was 13.3%. COCC(=O)N/N=C/c1ccc(Sc2nc3ccccc3s2)o1 was tested, and the “hERG current change (%, negative = inhibition) at 1uM” value was -1.28%. For CC(=O)c1cc(CN2C(=O)c3ccccc3C2=O)cs1, the “hERG current change (%, negative = inhibition) at 1uM” value was 3.24%. For COc1ccc(NC(=O)C2CCN(S(=O)(=O)c3ccccc3)CC2)cc1, the “hERG current change (%, negative = inhibition) at 1uM” value was 19%. CN(Cc1ccccc1)C(=O)c1ccc2c(c1)OCCO2 was tested, and the “hERG current change (%, negative = inhibition) at 1uM” value was 8.34%. With CCC(C)c1ccccc1N1CC(C(=O)Nc2ccc(C)c(S(=O)(=O)N3CCOCC3)c2)CC1=O (centres unmarked) the “hERG current change (%, negative = inhibition) at 1uM” value was 13.4%. Nc1nnnn1/N=C/c1ccccc1C(F)(F)F was tested, and the “hERG current change (%, negative = inhibition) at 1uM” value was 4.32%. With Cc1cccc(NC(=O)c2nc[nH]c2C(=O)N[C@@H](C)C(=O)OC(C)(C)C)c1 the “hERG current change (%, negative = inhibition) at 1uM” value was 15.5%. In the case of COCCN=C1Sc2nc3c(C)cccc3cc2CN1Cc1ccco1, the “hERG current change (%, negative = inhibition) at 1uM” value was 5.8%. COc1ccc(-c2nnn(Cc3ccccc3)n2)cc1 was tested, and the “hERG current change (%, negative = inhibition) at 1uM” value was 16.5%. COc1ccc(S(=O)(=O)Nc2ccc(NC(C)=O)cc2)cc1Br was tested, and the “hERG current change (%, negative = inhibition) at 1uM” value was 8.85%. With COC(=O)CCC/C=C1/SCC(NC(=O)c2ccccc2)C1O (centres unmarked) the “hERG current change (%, negative = inhibition) at 1uM” value was 5.92%. In the case of O=C(NCc1cc(C(F)(F)F)cc(C(F)(F)F)c1)C1CC(c2cccc([N+](=O)[O-])c2)=NO1 (centres unmarked), the “hERG current change (%, negative = inhibition) at 1uM” value was 10.7%. In the case of Cc1ccc(CN2CCc3c(OCC(=O)Nc4cc(C)ccc4C)cccc3C2=O)cc1, the “hERG current change (%, negative = inhibition) at 1uM” value was -0.915%. In the case of O=C(CNc1cccc2ccccc12)N/N=C/c1ccc([N+](=O)[O-])o1, the “hERG current change (%, negative = inhibition) at 1uM” value was -3.85%. Cc1cc(C)cc(N(C(=O)c2csnn2)C(C(=O)NC2CCCC2)c2ccccn2)c1 (centres unmarked) was tested, and the “hERG current change (%, negative = inhibition) at 1uM” value was -0.609%. O=C(Nc1nccs1)c1cc(-c2ccccc2)nn1-c1ccccc1 was tested, and the “hERG current change (%, negative = inhibition) at 1uM” value was 6.15%. CC1CCN(c2nc3c(c(=O)n(C)c(=O)n3C)n2CCSc2nc3ccccc3s2)CC1 was tested, and the “hERG current change (%, negative = inhibition) at 1uM” value was 0.675%. In the case of CCCc1nc2oc(C(=O)c3ccccc3)c(N)c2c2c1COC(C)(C)C2, the “hERG current change (%, negative = inhibition) at 1uM” value was 21.9%. CN(C)Cc1ccccc1Sc1ccc(O)cc1O.O.O=C(O)/C=C\C(=O)O was tested, and the “hERG current change (%, negative = inhibition) at 1uM” value was 8.45%. With COCC(C)NS(=O)(=O)c1ccc(OC)cc1 (centres unmarked) the “hERG current change (%, negative = inhibition) at 1uM” value was 9.51%. With COc1ccc(CCNC(=O)CC2SC(=NCCc3ccccc3)NC2=O)cc1 (centres unmarked) the “hERG current change (%, negative = inhibition) at 1uM” value was -1.05%. With O=C(CSc1nc(-c2ccco2)cc(C(F)(F)F)n1)Nc1cccnc1 the “hERG current change (%, negative = inhibition) at 1uM” value was 21%. For CC12CCC(=O)N1C(C(=O)N1CCN(c3ccccc3)CC1)CS2 (centres unmarked), the “hERG current change (%, negative = inhibition) at 1uM” value was -19.6%. For C/C(N)=C(/C#N)C(=O)COC(=O)c1ccncc1, the “hERG current change (%, negative = inhibition) at 1uM” value was 18.5%. In the case of CCOC(=O)C1CCCN(C(=O)CC(c2ccccc2)c2ccccc2)C1 (centres unmarked), the “hERG current change (%, negative = inhibition) at 1uM” value was -2.54%. O=C(Nc1ccc2ccccc2c1)/C(=C\c1ccc2c(c1)OCO2)NC(=O)c1ccco1 was tested, and the “hERG current change (%, negative = inhibition) at 1uM” value was 2.11%. With COc1ccc(NC(=S)N2CCN(S(=O)(=O)c3ccc(OC)cc3)CC2)cc1 the “hERG current change (%, negative = inhibition) at 1uM” value was 8.93%. With COc1ccc(Br)cc1-c1nc(CCl)cs1.Cl the “hERG current change (%, negative = inhibition) at 1uM” value was 10.6%. For COc1ccc(C(=O)NNC(=O)CSc2nnc(-c3cccnc3)o2)cc1, the “hERG current change (%, negative = inhibition) at 1uM” value was 19.4%. In the case of O=C(CCc1ccccc1)NCc1ccccn1, the “hERG current change (%, negative = inhibition) at 1uM” value was -10.1%. With C=CCn1c(NCc2ccc(N(C)C)cc2)nc2ccccc21 the “hERG current change (%, negative = inhibition) at 1uM” value was 11.2%. With CCOc1ccc(OCC)c(S(=O)(=O)N2CCCCC2)c1 the “hERG current change (%, negative = inhibition) at 1uM” value was 8.67%. With CCCCOc1ccc(N(CC(=O)NCc2ccccc2)C(=O)c2csnn2)cc1 the “hERG current change (%, negative = inhibition) at 1uM” value was -12.8%. With CC(=O)c1cc(C)ccc1OC(=O)c1cccc2nc(C)oc12 the “hERG current change (%, negative = inhibition) at 1uM” value was 10.8%. For CCN(CC(=O)Nc1ccc(NC(C)=O)cc1)C(=O)c1cc(S(=O)(=O)N2CCCCCC2)ccc1OC, the “hERG current change (%, negative = inhibition) at 1uM” value was 6.41%. With Cc1ccc(NC(=S)NCCN2CCOCC2)cc1 the “hERG current change (%, negative = inhibition) at 1uM” value was -3.53%. With Cc1nn2c(NCCN3CCOCC3)c3c(nc2c1-c1ccccc1)CCCC3 the “hERG current change (%, negative = inhibition) at 1uM” value was -1.48%. With CCOc1ccccc1N(CC(=O)Nc1ccccc1C(=O)NCc1ccco1)S(C)(=O)=O the “hERG current change (%, negative = inhibition) at 1uM” value was 2.08%. In the case of O=C(NC1=NCCS1)c1ccncc1, the “hERG current change (%, negative = inhibition) at 1uM” value was 0.0978%. For C=CCN(c1ccccc1)S(=O)(=O)c1ccc(Cl)c(C(=O)OCC(=O)N(C)C2CCS(=O)(=O)C2)c1 (centres unmarked), the “hERG current change (%, negative = inhibition) at 1uM” value was 7.22%. CN(Cc1ccccc1)C(=O)COC(=O)c1ccc(S(=O)(=O)N(C)C)cc1 was tested, and the “hERG current change (%, negative = inhibition) at 1uM” value was 5.98%. In the case of CN(C)C=Nc1c(C(=O)c2ccccc2)sc2nccc(N(C)C)c12, the “hERG current change (%, negative = inhibition) at 1uM” value was 1.89%. With COc1ccc(N=Cc2cc(Cc3ccccc3Cl)cc([N+](=O)[O-])c2O)cc1OC the “hERG current change (%, negative = inhibition) at 1uM” value was 8.67%. For Cc1cccc2cc3ccccc3nc12, the “hERG current change (%, negative = inhibition) at 1uM” value was 9.43%.
